The full ranking holds about 33,000 sequences; the median of “E-score (-0.5 to 0.5)” is about -0.04, and the highest 2% start at about 0.36. The list shows a part of the results.
The sequences below were run against T1, Hmlalpha2 (UniProt P0CY09) (assay: PBM E-score (8-mer binding enrichment) (E-score (-0.5 to 0.5)); higher = stronger / more preferred TF binding; most listed sequences are background and not binding sites). Conditions: protein concentration: 200 nM; construct: GST-full length.
T1 sequence: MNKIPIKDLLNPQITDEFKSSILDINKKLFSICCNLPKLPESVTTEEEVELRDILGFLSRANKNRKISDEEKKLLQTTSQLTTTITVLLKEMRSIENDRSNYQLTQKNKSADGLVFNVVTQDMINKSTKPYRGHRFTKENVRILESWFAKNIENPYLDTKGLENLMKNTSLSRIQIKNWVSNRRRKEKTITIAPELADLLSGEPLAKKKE
In short: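 Bound GST-tagged yeast transcription factors, applied at about 100-200 nM to double-stranded universal all-10-mer Agilent arrays, were detected with fluorescent anti-GST. Scans were normalised with masliner. A modified Wilcoxon-Mann-Whitney statistic, the E-score, was assigned to each ungapped eight-base word pooled with its reverse complement by the Universal PBM Analysis Suite.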

Sequence | PBM E-score
ACGGTAAT | -0.0352
AGTGATTC | 0.0533
ACATCAGA | 0.0333
AGCATTCA | -0.193
AAAGGCCC | -0.177
GATGCATC | 0.0847
ATCCATAA | -0.0296
GGTCACAA | -0.0816
GTAGAGTA | 0.183
GTCCCAAC | 0.0725
GACTAATC | -0.156
ACTAATTC | 0.203
CAAGGTGC | 0.0442
AACCTGGC | 0.0313
CAGTGAAG | -0.0557
CCCCTGGC | -0.319
CGAGATGA | -0.109
ATCTTGGG | -0.051
AAACGCCG | 0.174
AGTCTAAC | -0.0244
ACCTCTGA | -0.177
GAGAGGGC | -0.278
ACCGAATG | 0.0693
AACCATGT | 0.368
GCAACACA | 0.167

Sequence | PBM E-score
CTCGCCAC | -0.153
CCCAAGGA | -0.282
CATTTAAC | 0.325
GTATCGAC | 0.0754
ATTCACCG | -0.119
CAACGGGG | -0.137
CCGTCAAG | -0.166
AACAATAA | 0.206
ATCACCAT | 0.0619
ATCACATC | -0.00733
AATCTGTA | 0.186
GTCCTACA | 0.182
GGACGTTA | 0.191
ACTTGATC | -0.0376
AGCATAAG | -0.114
AGACTGCT | -0.256
AGATCTGC | 0.0996
GCGTTCCC | -0.135
GGTATCCA | -0.112
AAACATCT | 0.202
ACATCCTG | 0.195
GTTGGTCA | 0.0634
AACTAGCA | -0.116
AGTAATCG | 0.23
AGCATTGC | 0.0222

Sequence | PBM E-score
ACGTTTCA | -0.00282
CGGCAAAG | -0.188
GGGTACAA | 0.0999
CGACCGGC | -0.152
ACCATCAC | -0.0992
GCGAACTA | -0.101
AAAATCCA | 0.095
AATAGGCG | -0.0915
GACTACCC | -0.169
CGCCTACC | -0.129
AACTCTGT | 0.1
GCGTAAGA | 0.249
AGCCTGTA | 0.199
AGACGTGC | -0.0503
AACGGAGG | -0.0611
ACCCACAC | -0.0703
ATCCCAAG | -0.146
GGGCGCTA | -0.15
ATCTTATC | -0.0594
CGTCCAAG | -0.304
TGTCTAAA | 0.318
AAGTACAG | 0.0583
AGTTGATG | 0.178
CCTGGGTC | -0.184
AATCGTTC | -0.0133

Sequence | PBM E-score
ATCTGAAG | -0.265
AAATTGCT | -0.0188
CGCAGCAA | 0.00477
GACGCAGA | -0.0856
GAGTTAAA | 0.185
GGAAGGAC | -0.0308
GGAGAGCA | 0.0263
CATAGATG | -0.058
GAGGGCGC | -0.258
CGAGCGGA | -0.193
CAGTAATA | 0.271
CAATGCAC | 0.195
GGGACTAC | -0.141
CTGATTAA | 0.141
CTTTTCAC | 0.0898
AATATGCC | -0.0787
CTTGGTAC | 0.159
AGAGGCTC | -0.387
CATTAATG | 0.129
CCACAGTA | -0.00873
ACGGGCAG | 0.0314
ATTTGTTA | 0.266
GAGATTAA | 0.113
AGACTATG | 0.0474
ATAACCGG | -0.147

Sequence | PBM E-score
ATGAGTTC | -0.116
GTATTATA | 0.318
AATATAGT | 0.15
ATAATTGG | -0.226
ATATGAAA | 0.063
TATCAGAA | 0.0402
TCCGACCA | -0.0996
CTGCAGTC | -0.186
AGAGTAGC | -0.216
AAATTACC | 0.171
GAGAAAAC | 0.0511
AAAAAAAT | 0.0701
TGGTAACA | 0.239
CTCAGAGC | -0.256
GAAAACGA | -0.0996
CGCGCCTA | 0.109
GAGCAGAA | 0.0114
TGAGTAAA | 0.265
ACTTGGAT | 0.0128
GGATAGGA | -0.212
TCGCGCAA | 0.209
ACAAGGCG | 0.158
TTAAATAA | 0.157
CAGGAATG | -0.0888
CGTGGAGC | -0.23

Sequence | PBM E-score
ATCCGTAA | -0.0845
CAACACTA | 0.169
AACACATT | 0.291
AGTTGTCG | 0.1
ACTATGCT | 0.0922
GAAATGGA | -0.105
AACTCGGG | -0.0416
ACCCGCGA | -0.0316
AGATGTCG | -0.0668
GGCAACCC | -0.304
CATGGTCG | -0.0159
CCTAAGAC | -0.124
AGGCGGCA | -0.156
CATTCATA | 0.143
ACCCTAAG | -0.228
TAGGTGAA | 0.169
ATGTGTTA | 0.429
CTCCCCAG | -0.343
TCTCTTCA | -0.166
AAAGCCTA | 0.0525
AGTCTCGC | -0.156
CTAGGGCA | -0.382
AACGGCAA | 0.0509
CGCGTAAA | 0.454
GCGACCAA | -0.0947

Sequence | PBM E-score
GAATCCTA | 0.029
ATGCATCC | -0.287
ATGCATAA | 0.147
CCTGCACA | -0.221
CCCGGTAC | -0.159
CTTGGTGC | -0.143
ACCTTGGC | -0.242
CAAACATG | 0.34
CTTGGTTC | -0.019
TGCGTCCA | -0.0642
AGTTCGTA | 0.0615
AGCCAAAA | 0.077
CACAATAC | 0.114
ACGTCGTC | 0.187
CTTCCGCA | -0.157
CGAGTGGC | -0.219
CTGGAAAG | -0.217
ACATATCA | 0.229
CTATGGAA | -0.0395
GAATACCA | 0.109
GTAGGAAC | 0.101
TCCCTACA | 0.0844
AAGCCGGG | -0.177
AAAGGGGC | -0.146
CGTTGTGA | 0.12

Sequence | PBM E-score
CCTCTCAC | -0.127
CGGCATAA | -0.0207
GACTATGA | -0.311
CACAGAAA | 0.0577
CCCAAGTC | -0.242
CTGCCTCC | -0.265
CTCAGGGC | -0.295
GAAACGCA | 0.0447
TTAACCAA | 0.193
CTTGTTTC | 0.0713
GATGAACA | 0.239
ATCTTCAT | -0.125
ACCCTCTA | -0.18
AAAATTAT | 0.269
CATCTTTA | 0.177
AACTGCGT | 0.257
ACATGGAT | 0.388
ATCCGGAA | -0.0274
AACGACAC | 0.161
ATAGTCCC | -0.131
ATCAGAGC | -0.225
CTAGCCCC | -0.172
ATACGTTA | 0.255
AACGATAG | -0.0537
GCACTAGA | -0.237

Sequence | PBM E-score
CCTCGTGC | -0.0876
CCTCGGAA | -0.187
GCTTAGCA | -0.0761
ACTCATAG | -0.169
CAAGCGAC | 0.0382
CTCAATAA | -0.0492
AGTCCAAT | 0.0203
TCAACACA | 0.43
TACCGTAA | 0.121
GCGCGGCA | -0.0662
GCTATCGA | -0.235
AGGGCACG | -0.222
AAAGGGTC | -0.128
GTAGTCCA | 0.0432
CTCCTCAC | -0.262
ATGGGCGA | -0.175
ACTATGAA | 0.00774
CGCAGCTC | -0.054
ATGGCAGG | -0.256
